In the supplement of paper PMC8512760 one finds cell viability data, which are given here for eight compounds.

The other results are listed elsewhere or left out. Single values are uncertain, as repeats are few or missing.

Holding throughout (assay): cell viability relative to vehicle (% of vehicle); basal-like triple-negative breast cancer lines; higher = less cytotoxic
Holding throughout (conditions): 10 µM; 72 h

In experiment [1] the test system is HCC-1143.
Experiment [2] relates to HCC-1187.
Experiment [3] has as its system MDA-468.
In experiment [4] the test system is SUM-149.
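Further: stably firefly luciferase-GFP labeled cells in 96-well plates, viability read as luciferase photon flux after d-luciferin addition, treated wells normalized to vehicle wells, single-dose high-throughput screen.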

In the case of `OCC1OC(Oc2ccc(O)cc2)C(O)C(O)C1O` (configuration not stated) [Arbutin], the cell viability in experiment [1] amounted to 81.6; in experiment [2], 81; in experiment [3], 114; in experiment [4], 104.
Turning to `O=C(O)COCCN1CCN(C(c2ccccc2)c2ccc(Cl)cc2)CC1` (configuration not stated) [Cetirizine], the cell viability turned out to be 79.5 in experiment [1], 87.8 in experiment [2], 92.7 in experiment [3] and 139 in experiment [4].
In the case of `CC1(C)O[C@@H]2C[C@H]3[C@@H]4CCC5=CC(=O)CC[C@]5(C)[C@@]4(F)[C@@H](O)C[C@]3(C)[C@]2(C(=O)CCl)O1` [Halcinonide], the cell viability in experiment [1] was 80.1; in experiment [2], 108; in experiment [3], 148; in experiment [4], 154.
As to `COc1ccc(C2CNC(=O)C2)cc1OC1CCCC1` (stereo not drawn) [S- (+)-Rolipram], the cell viability stood at 113 in experiment [1], 65.5 in experiment [2], 98.7 in experiment [3] and 108 in experiment [4].
The matching figures for `COc1ccc(-c2ccc3cc(C(=O)O)ccc3c2)cc1C12CC3CC(CC(C3)C1)C2` [Adapalene]: 114, 84.3, 104 and 97.8.
Consider `CC(=O)NC1C(N=C(N)N)C=C(C(=O)O)OC1C(O)C(O)CO` (configuration not stated) [Zanamivir], for which the cell viability in experiment [1] amounted to 76.7; in experiment [2], 82.9; in experiment [3], 90.1; in experiment [4], 93.
As for `COC(=O)Nc1nc2cc(C(=O)c3ccccc3)ccc2[nH]1` [Mebendazole], the cell viability in experiment [1] was determined as 73.5; in experiment [2] it was 42; in experiment [3], 105; in experiment [4] it was 113.
As to `CC(Cc1cc2c(c(C(N)=O)c1)N(CCCO)CC2)NCCOc1ccccc1OCC(F)(F)F` (configuration not stated) [Silodosin], the cell viability in experiment [1] was 78.9; in experiment [2], 100; in experiment [3] it was 123; in experiment [4] it was 100.
